{"source": "PubChem BioAssay (Tox21)", "note": "Values joined by “and” are separate entries in the source; they are usually repeats but may differ in a detail not shown here. Equal values may be shown once. The inconclusive results got no clear call from the source; some entries with a clear call stand among them for comparison. Where the call is inconclusive, the potency comes from a doubtful curve fit. More than one record can exist for a structure, and the calls need not agree. Active and inactive are the calls of the source. The call rests on the fitted dose curve; in most records, active means well fitted cell-killing curve with a large enough effect in the repeat runs; inconclusive means weak or mixed curves, or effect the other way; inactive means no such curve, though single readings can be large or run the other way. Potency means the concentration at half of the fitted maximal effect; tags describe the fitted curve by direction and shape.", "data": [{"test": "Caspase-3/7 induction in CHO-K1 cells by small molecules, qHTS cell viability counter screen (AID 1346979); further: nearly all actives have a fitted effect of over 35% in size", "details": "CellTiter-Fluor fluorescence, 17 h; series mostly up to 92.4 µM", "excerpt": "National Center for Advancing Translational Sciences [NCATS]\nNIH Chemical Genomics Center [NCGC]\nU.S. Environmental Protection Agency [EPA]\nNational Institutes of Environmental Health Sciences [NIEHS]\nNational Toxicology Program [NTP]\nU.S. Food and Drug Administration [FDA]\nApoptosis is a process of programmed cell death and plays a central role in the development of multicellular organisms. It is a highly regulated process and induces cell death by activating caspases, which are the members of cysteine aspartic acid-specific protease (caspase) family. Caspases involved in apoptosis are classified by their mechanism of action as initiator caspases (caspase-2, -8, -9 and -10) and executioner caspases (caspase-3, -6, and -7). Inhibition of apoptosis results in number of cancers, autoimmune diseases, inflammatory diseases and viral infection. To identify small molecule compounds that induce apoptosis, a homogeneous, luminescent Caspase-Glo 3/7 assay was used. Wild type CHO-K1 cells were used to screen Tox21 libraries for identifying caspase-3/7 activity inducers. Also cytotoxicity of the compounds was tested in parallel by measuring the cell viability using CellTiter-Fluor assay system in the same wells.\nTox21 Assay Protocol Summary:\nCHO-K1 cells were dispensed at 1,500 per well in 5uL of culture medium into white solid bottom 1536-well plates (Corning Life Sciences, Corning, NY) using a Multidrop Combi (Thermo Scientific, Waltham, MA) dispenser. The assay plates were incubated at 37 C and 5% CO2 for 5hr, and then 23nL of compounds dissolved in DMSO and positive control were transferred using a Pintool station (Wako, San Diego, CA). The assay plates were incubated at 37C and 5% CO2 for 17hr. For cytotoxicity read, after 16hr incubation at 37C, 1uL CellTiter-Fluor reagent (Promega Corporation, Madison, WI) was added to each well of the assay plates using Flying Reagent Dispenser (FRD, Aurora Discovery, San Diego, CA). After 1hr incubation at 37C and 5% CO2, the fluorescence signal was quantified using a ViewLux plate reader (PerkinElmer, Shelton, CT).", "values": [{"smiles": "C[C@]12CC[C@H]3[C@@H](CCC4=CC(=O)CC[C@@]43C)[C@@H]1CC[C@@H]2C(=O)CO", "Potency": "inconclusive: 77 µM [cytotoxic, single point]"}, {"smiles": "O=C(c1ccc(O)c(O)c1)c1ccc(O)cc1O", "Potency": "active: 54.4 µM"}, {"smiles": "O=c1[nH]nc(-c2ccc([N+](=O)[O-])o2)o1", "Potency": "active: 61.1 µM"}, {"smiles": "O=C(NO)C1(NS(=O)(=O)c2ccc(Oc3ccc(F)cc3)cc2)CCOCC1", "Potency": "inconclusive: 77 µM [cytotoxic, partial curve, poor fit]"}, {"smiles": "C[C@H](CCC(=O)O)[C@H]1CC[C@H]2[C@@H]3[C@H](O)C[C@@H]4C[C@H](O)CC[C@]4(C)[C@H]3CC[C@]12C", "Potency": "inconclusive: 68.8 µM [cytotoxic, single point]"}, {"smiles": "CN1C(C(=O)Nc2ccccn2)=C(O)c2ccccc2S1(=O)=O", "Potency": "inactive"}, {"smiles": "O=C(Cl)c1cc(C(=O)Cl)cc(C(=O)Cl)c1", "Potency": "inconclusive: 68.6 µM [cytotoxic, single point]"}, {"smiles": "Cc1ccc(CCn2c3c(c4cc(Cl)ccc42)CN(C)CC3)cn1", "Potency": "inconclusive: 29.8 µM [cytotoxic, single point]"}, {"smiles": "Oc1ccc(Cc2ccccc2)cc1", "Potency": "inconclusive: 56.6 µM [cytotoxic, single point]"}, {"smiles": "Nc1ccc(C(=O)Nc2ccccc2N)cc1", "Potency": "inconclusive: 18.8 µM [cytotoxic, partial curve]"}, {"smiles": "CN1CCN(C2Cc3ccccc3Sc3ccc(Cl)cc32)CC1", "note": "(stereo not given)", "Potency": "inconclusive: 33.5 µM [cytotoxic, single point]"}, {"smiles": "CCCCCCCCCCCCOC(=O)c1ccc(O)cc1", "Potency": "inconclusive: 69.1 µM [cytotoxic, single point]"}, {"smiles": "C=C(C)C(=O)OCCCCCCCCCCOC(=O)C(=C)C", "Potency": "inactive"}, {"smiles": "COc1cc(C(=O)NC2CCN(C)CC2)ccc1Nc1ncc2c(n1)N(C1CCCC1)CC(F)(F)C(=O)N2C", "Potency": "active: 0.499 µM"}, {"smiles": "CC(=O)OC(OC(C)=O)c1ccc([N+](=O)[O-])o1", "Potency": "active: 15.6 µM"}, {"smiles": "CC(C)OC=O", "Potency": "inconclusive: 65 µM [cytotoxic, single point]"}, {"smiles": "CC(C)=CCCC(C)CCO", "note": "(stereo not given)", "Potency": "inactive"}, {"smiles": "C=CC(C)(CCC=C(C)C)OC(C)=O", "note": "(stereo not given)", "Potency": "inactive"}, {"smiles": "CCCCCCCCCCCCCC[N+](C)(C)Cc1ccccc1", "Potency": "active: 43.9 µM and active: 33.5 µM and active: 17.8 mM"}, {"smiles": "Cc1ccc(O)c(O)c1", "Potency": "active: 52.9 µM"}, {"smiles": "COc1ccc(C(=O)CC(=O)c2ccc(C(C)(C)C)cc2)cc1", "Potency": "inconclusive: 73.8 µM [cytotoxic, single point]"}, {"smiles": "CCCCCC1=CCCC1=O", "Potency": "inconclusive: 55.6 µM [cytotoxic, partial curve]"}, {"smiles": "CCCCc1nc2cccnc2n1Cc1ccc(-c2ccccc2-c2nnn[nH]2)cc1", "Potency": "active: 48.6 µM"}, {"smiles": "O=C1NC2CCCCN2C12CCN(CCCN1c3ccccc3CCc3ccc(Cl)cc31)CC2", "note": "(stereo not given)", "Potency": "active: 26.6 µM"}, {"smiles": "Oc1ccc(CCNCCCCCCNCCc2ccccc2)cc1O", "Potency": "inconclusive: 26.6 µM [cytotoxic, single point]"}, {"smiles": "CCCOC(=O)c1cc(O)c(O)c(O)c1", "Potency": "active: 48.3 µM and active: 30.6 µM"}, {"smiles": "CCCCCCCCCCCCO", "Potency": "inactive"}, {"smiles": "CCN(CC)c1ccc(C(=C2C=CC(=[N+](CC)CC)C=C2)c2ccc(S(=O)(=O)O)cc2S(=O)(=O)[O-])cc1", "Potency": "active: 15.4 µM"}, {"smiles": "C/C=C(\\C)C(=O)OCCc1ccccc1", "Potency": "inactive"}, {"smiles": "CN1CCC(N(Cc2cccs2)c2ccccc2)CC1", "Potency": "inconclusive: 33.5 µM [cytotoxic, single point]"}, {"smiles": "Nc1ccc2cc3ccc(N)cc3nc2c1", "Potency": "inconclusive: 30.6 µM [rising, partial curve] and inconclusive: 26.6 µM [rising, partial curve]"}, {"smiles": "CNCC[C@H](Oc1cccc2ccccc12)c1cccs1", "Potency": "inconclusive: 33.5 µM [cytotoxic, single point]"}, {"smiles": "CCCC(C)c1ccccc1O", "note": "(stereo not given)", "Potency": "inconclusive: 61.1 µM [cytotoxic, single point]"}, {"smiles": "CCCC(=O)OC[C@@H](OC(=O)CCC)[C@@H](OC(=O)CCC)[C@H](Cn1c2nc(=O)[nH]c(=O)c-2nc2cc(C)c(C)cc21)OC(=O)CCC", "Potency": "inconclusive: 26.6 µM [rising, partial curve]"}, {"smiles": "CCc1oc2ccccc2c1C(=O)c1cc(I)c(O)c(I)c1", "Potency": "inconclusive: 37.6 µM [cytotoxic, single point]"}, {"smiles": "Cc1ccc(O)c(N)c1", "Potency": "active: 61.2 µM"}, {"smiles": "NCCNc1cccc2ccccc12", "Potency": "inconclusive: 68.5 µM [cytotoxic, single point] and active: 66.9 µM"}, {"smiles": "OCc1cccnc1", "Potency": "inconclusive: 63.1 µM [rising, partial curve, poor fit]"}, {"smiles": "Cc1cccc(Nc2cc(Cl)nc(SCC(=O)O)n2)c1C", "Potency": "inconclusive: 22.4 µM [rising, partial curve, poor fit]"}, {"smiles": "COc1cc(C(C)C)c2c(c1)S(=O)(=O)N(COc1cc(=O)n3cccc(OCCN4CCCCC4)c3n1)C2=O", "Potency": "inconclusive: 14.6 µM [cytotoxic]"}]}]}
